Reference: the supplement of paper PMC8813932
Counter-ions that a name gives are not always drawn. ± gives the standard deviation of the averaged measurements. Some of the results follow. Repeats are few or missing, and single values can be far off.

How the values were obtained:
Experiment in all cases: log2 surviving fraction relative to plate median (drug vs vehicle, or drug+dl922-947 vs dl922-947 alone); ovarian cancer lines: OVCAR4 is platinum-sensitive while Ov4Cis resists cisplatin and Ov4Carbo carboplatin; higher = more cell survival
Settings in all cases: compound concentration: 10 uM, 192 h
OVCAR4 = system: OVCAR4
Ov4Carbo = system: Ov4Carbo
Ov4Cis = system: Ov4Cis
[1] = dl922-947 oncolytic adenovirus co-treatment: MOI 10
[2] = dl922-947 oncolytic adenovirus co-treatment: none

| Compound | log2 surviving fraction (OVCAR4; [1]) | log2 surviving fraction (OVCAR4; [2]) | log2 surviving fraction (Ov4Carbo; [1]) | log2 surviving fraction (Ov4Carbo; [2]) | log2 surviving fraction (Ov4Cis; [1]) | log2 surviving fraction (Ov4Cis; [2]) |
| --- | --- | --- | --- | --- | --- | --- |
| COc1ccc(O)cc1 [Mequinol] | -0.529 ± 0.037 | -0.584 ± 0.6 | -0.324 | -0.859 | -0.884 | 0.185 |
| Cc1ccnc(NS(=O)(=O)c2ccc(N)cc2)n1 [Sulfamerazine] | 0.27 ± 0.39 | -0.157 ± 1.1 | 0.254 | -0.932 | 0.237 | 0.41 |
| CCN1CCCC1CNC(=O)c1cc(S(=O)(=O)CC)c(N)cc1OC (stereo unspecified) [Amisulpride] | 0.271 ± 0.05 | 0.79 ± 0.47 | 0.665 | 1.77 | 0.286 | 0.583 |
| CCOC(=O)CC(=O)N1CCSC1COc1ccccc1OC (stereo unspecified) [Moguisteine] | -0.0719 ± 0.8 | 0.347 ± 0.11 | 0.604 | 0.345 | -0.405 | 0.593 |
| CCc1cc2c(cc1CC)CC(NC[C@H](O)c1ccc(O)c3[nH]c(=O)ccc13)C2 [Indacaterol Maleate] | -1.87 ± 0.5 | -1.48 ± 1.2 | -1.47 | -1.05 | -4.79 | -2.29 |
| COC(=O)C1=CCCN(C)C1 [Arecoline] | 0.24 ± 0.16 | 0.796 ± 0.4 | 0.355 | -1.05 | -0.0245 | 0.864 |
| CCc1ccc(CCOc2ccc(CC3SC(=O)NC3=O)cc2)nc1 (stereo unspecified) [Pioglitazone (Actos)] | 0.844 ± 0.33 | 0.19 ± 0.34 | 1.13 | 0.731 | 0.823 | 0.727 |
| CN1CCC[C@@H]1CCO[C@](C)(c1ccccc1)c1ccc(Cl)cc1 [Clemastine Fumarate] | -2.4 ± 0.78 | -1.86 ± 0.61 | -2.09 | -4.03 | -3.78 | -4.03 |
| Cc1cc2c(s1)Nc1ccccc1N=C2N1CCN(C)CC1 [Olanzapine (Zyprexa)] | 0.807 ± 0.41 | -0.321 ± 1.1 | -0.283 | -0.0869 | 0.316 | 0.339 |
| C[C@]12C/C(=C/O)C(=O)C[C@@H]1CC[C@@H]1[C@@H]2CC[C@@]2(C)[C@H]1CC[C@]2(C)O [Oxymetholone] | 0.144 ± 0.098 | -0.359 ± 0.29 | 1.11 | -4.28 | -0.18 | -0.538 |
| CC1COc2c(N3CCN(C)CC3)c(F)cc3c(=O)c(C(=O)O)cn1c23 (stereo unspecified) [Ofloxacin (Floxin)] | 1.11 ± 0.37 | 0.142 ± 0.2 | 0.638 | 0.552 | 0.237 | 0.942 |
| CC(C)NCC(O)COc1ccc(CCOCC2CC2)cc1 (stereo unspecified) [Betaxolol hydrochloride (Betoptic)] | 0.033 ± 0.3 | 0.227 ± 0.06 | 0.946 | 0.415 | -0.295 | 0.397 |
| O=NO [Sodium nitrite] | -0.845 ± 0.69 | -0.261 ± 0.2 | 0.593 | -0.513 | -0.173 | -0.209 |
| O=C(O[C@H]1C[C@H]2CC[C@@H](C1)[N+]21CCCC1)C(O)(c1ccccc1)c1ccccc1 [Trospium chloride (Sanctura)] | -0.261 ± 0.41 | -0.246 ± 0.25 | 1.64 | -0.0323 | 0.184 | -0.518 |
| CCC1(c2cccc(O)c2)CCCCN(C)C1 (stereo unspecified) [Meptazinol HCl] | -1.05 ± 0.21 | -0.305 ± 0.87 | -0.213 | 0.371 | -0.977 | -0.733 |
| CCOC(=O)C1=C[C@@H](OC(CC)CC)[C@H](NC(C)=O)[C@@H](N)C1 [Oseltamivir phosphate (Tamiflu)] | -0.16 ± 0.12 | -0.0242 ± 0.61 | -0.103 | -0.543 | 0.24 | 0.515 |
| C#Cc1cccc(Nc2ncnc3cc(OCCOC)c(OCCO)cc23)c1 [OSI-420 (Desmethyl Erlotinib)] | -1.25 ± 0.087 | -3.17 ± 0.92 | -0.294 | -3.25 | -0.363 | -2.62 |
| CCCSc1ccc2[nH]c(NC(=O)OC)nc2c1 [Albendazole (Albenza)] | -6.07 ± 1.2 | -6.83 ± 3.6 | -3.43 | -7.78 | -4.73 | -6.42 |
| O=C(O)C1(C(=O)O)CCC1.[NH2-].[NH2-].[Pt+2] [Carboplatin] | -1.23 ± 0.18 | -0.472 ± 1.2 | -0.124 | 1.63 | -1.09 | 0.0934 |
| O=S(=O)(O)Oc1ccc(C(c2ccc(OS(=O)(=O)O)cc2)c2ccccn2)cc1 [Sodium Picosulfate] | 0.84 ± 0.22 | 0.747 ± 0.74 | -0.0519 | 1.76 | -0.153 | 0.834 |
| CO/N=C(\C(=O)N[C@@H]1C(=O)N2C(C(=O)OCOC(=O)C(C)(C)C)=C(/C=C\c3scnc3C)CS[C@H]12)c1csc(N)n1 [Cefditoren pivoxil] | 0.625 ± 1.5 | -0.308 ± 1.4 | -1.08 | 0.82 | 0.282 | 1.15 |
| COc1ccc(CN(CCN(C)C)c2ccccn2)cc1 [Pyrilamine Maleate] | 0.0134 ± 0.15 | -0.00364 ± 0.59 | -1.22 | 0.248 | -1.38 | 0.358 |
| CCC(NC(C)C)C(O)c1ccc(O)c(O)c1 (stereo unspecified) [Isoetharine Mesylate] | 0.154 ± 0.38 | 0.207 ± 0.68 | -0.338 | 0.415 | -0.353 | 0.267 |

| Compound | log2 surviving fraction (OVCAR4; [1]) | log2 surviving fraction (OVCAR4; [2]) | log2 surviving fraction (Ov4Carbo; [1]) | log2 surviving fraction (Ov4Carbo; [2]) | log2 surviving fraction (Ov4Cis; [1]) | log2 surviving fraction (Ov4Cis; [2]) |
| --- | --- | --- | --- | --- | --- | --- |
| COC(=O)C1=CO[C@@H](O)[C@@H]2C(CO)=CC[C@H]12 [Genipin] | 0.777 ± 0.3 | 0.451 ± 0.23 | 0.276 | 0.72 | 1.32 | 0.652 |
| CC(=O)[C@H]1CC[C@H]2[C@@H]3C=CC4=CC(=O)CC[C@@]4(C)[C@@H]3CC[C@]12C [Dydrogesterone] | 0.306 ± 0.73 | 0.249 ± 0.0027 | 2.03 | 0.0978 | 0.623 | -0.00157 |
| CCOC(=O)OC(C)OC1=C(C(=O)Nc2ccccn2)N(C)S(=O)(=O)c2ccccc21 (stereo unspecified) [Ampiroxicam] | 0.242 ± 0.017 | 0.727 ± 0.44 | -0.381 | -0.445 | 0.522 | 0.463 |
| CCN(CCCc1ccccc1)CCCc1ccccc1 [Alverine Citrate] | -0.335 ± 0.96 | 0.594 ± 0.88 | -1.86 | 2.13 | -0.916 | -0.899 |
| CC/C(=C(\c1ccccc1)c1ccc(OCCN(C)C)cc1)c1ccccc1 [Tamoxifen Citrate (Nolvadex)] | -3.58 ± 1.5 | -2.58 ± 1.6 | -3.33 | -2.07 | -6.85 | -4.65 |
| CC=CC1=C(C(=O)O)N2C(=O)[C@@H](NC(=O)[C@H](N)c3ccc(O)cc3)[C@H]2SC1 [Cefprozil hydrate (Cefzil)] | -0.347 ± 0.39 | -0.711 ± 0.57 | 0.371 | -0.798 | -0.267 | -0.23 |
| NCCCC[C@H](N[C@@H](CCc1ccccc1)C(=O)O)C(=O)N1CCC[C@H]1C(=O)O [Lisinopril (Zestril)] | 0.911 ± 1.1 | 0.826 ± 0.19 | -0.483 | 0.769 | -0.387 | 1.07 |
| CNS(=O)(=O)Cc1ccc2[nH]cc(CCN(C)C)c2c1 [Sumatriptan succinate] | 0.717 ± 0.11 | 0.477 ± 0.73 | 1.31 | 1.47 | 0.974 | 2.13 |
| CC[C@@H]1C(=O)OC[C@@H]1Cc1cncn1C [Pilocarpine HCl] | 0.804 ± 0.15 | 1.09 ± 0.33 | 0.943 | 1.22 | 0.998 | 0.853 |
| C[C@@H]1C[C@H]2[C@@H]3CCC4=CC(=O)C=C[C@]4(C)[C@@]3(F)[C@@H](O)C[C@]2(C)[C@@]1(O)C(=O)CO [Dexamethasone] | 1.17 ± 0.14 | 0.324 ± 0.89 | 1.29 | 1.1 | 2.15 | -0.659 |
| CC(=O)OCC1=C(C(=O)O)N2C(=O)[C@@H](NC(=O)CSc3ccncc3)[C@H]2SC1 [Cephapirin Sodium] | 0.0796 ± 0.3 | 0.117 ± 0.14 | -0.176 | -0.513 | -0.318 | 0.205 |
| CC(=O)Oc1cc(C(F)(F)F)ccc1C(=O)O [Triflusal] | -0.456 ± 0.33 | 0.281 ± 0.27 | -0.327 | -0.455 | -0.12 | -0.151 |
| CCC[C@@H]1C[C@@H](C(=O)N[C@@H]([C@H]2O[C@H](SC)[C@H](O)[C@@H](O)[C@H]2O)[C@H](C)Cl)N(C)C1 [Clindamycin] | -0.957 ± 0.75 | -1.86 ± 1.4 | -1.1 | -0.504 | -1.57 | -2.55 |
| CCOc1nc2cccc(C(=O)OCc3oc(=O)oc3C)c2n1Cc1ccc(-c2ccccc2-c2noc(=O)[nH]2)cc1 [Azilsartan Medoxomil (TAK-491)] | 0.359 ± 0.029 | 1.24 ± 1.4 | -0.185 | 1.2 | 1.13 | -1.43 |
| CCCc1cc(=O)[nH]c(=S)[nH]1 [Propylthiouracil] | 0.761 ± 0.55 | 0.891 ± 0.14 | -0.593 | 0.0743 | 1.15 | -0.401 |
| CN1CCc2cccc3c2[C@H]1Cc1ccc(O)c(O)c1-3 [R-(-)-Apomorphine HCl Hemihydrate] | -0.471 ± 0.45 | -0.791 ± 0.88 | -0.31 | -0.771 | -0.553 | -1.67 |
| CC[C@@H](CO)NCCN[C@@H](CC)CO [Ethambutol HCl] | 0.209 ± 0.43 | 0.436 ± 0.33 | 0.0295 | -0.356 | 0.634 | -0.575 |
| O.O.O.O.O=C([O-])CC(O)(CC(=O)[O-])C(=O)[O-].[Li+].[Li+].[Li+] [Lithium Citrate] | 0.342 ± 0.14 | 0.395 ± 1 | -0.193 | -0.034 | -0.0339 | 0.817 |
| O=C1c2cccc3c2[C@H](CCC3)CN1[C@@H]1CN2CCC1CC2 [Palonosetron HCl] | -0.557 ± 1.2 | -0.7794 ± 0.0057 | -1.56 | -0.982 | -0.289 | -0.899 |
| CO[C@H]1C[C@@H]2CC[C@@H](C)[C@@](O)(O2)C(=O)C(=O)N2CCCC[C@H]2C(=O)O[C@H]([C@H](C)C[C@@H]2CC[C@@H](O)[C@H](OC)C2)CC(=O)[C@H](C)/C=C(\C)[C@@H](O)[C@@H](OC)C(=O)[C@H](C)C[C@H](C)/C=C/C=C/C=C/1C [Rapamycin (Sirolimus)] | -2.1 ± 0.6 | -6.91 ± 2.6 | -2.68 | -6.9 | -2.06 | -6.45 |
| CC1=C(CC(=O)O)c2cc(F)ccc2/C1=C\c1ccc([S+](C)[O-])cc1 (stereo unspecified) [Sulindac (Clinoril)] | -0.738 ± 0.23 | -1.21 ± 0.17 | -0.316 | -0.802 | -0.212 | -0.828 |
| C[C@]12CC[C@@H]3c4ccc(O)cc4CC[C@H]3[C@@H]1CCC2=O [Estrone] | 1.1 ± 0.49 | 0.126 ± 0.63 | 0.832 | -0.32 | 0.129 | 0.394 |
| Nc1nc2n[nH]nc2c(=O)[nH]1 [Azaguanine-8] | -0.875 ± 0.47 | -3.17 ± 0.81 | -1.84 | -6.37 | -0.526 | -1.05 |
